# Laboratory results taken from ChEMBL document CHEMBL4888484, “Replenishing the malaria drug discovery pipeline: Screening and hit evaluation of the MMV Hit Generation Library 1 (HGL1) against asexual blood stage Plasmodium falciparum ,using a nano luciferase reporter read-out” (2022).
# The campaign covered roughly 150,000 compounds. About 540 (0.36%) showed an effect of 50% or more. This is one part of the list.
# Test system: Plasmodium falciparum
# Experiment: Primary screen in NF54 nanoGlo assay, in single point, at 2uM, 72h; a lower Z score goes with more inhibition
# Format: functional, Erythrocyte
# Conditions: timepoint 72 hour
SMILES,% Inhibition,Z score
CN(C(=O)CCOC1CCOCC1)c1cccc(F)c1,-8%,1.06
COc1cc(NC(=O)CCc2ccc(C)o2)ncn1,-13%,1.69
C[C@@H](Cn1cncn1)C(=O)NCc1cccnc1N1CCN(C)CC1,-1%,0.19
O=C(NCc1cccc(Cl)c1)[C@@H]1CN(S(=O)(=O)c2ccccc2Cl)CCO1,0%,-0.07
CC(=O)N1CCN(C(=O)c2cc(Cl)c(Cl)n2C)CC1,-1%,0.19
COc1cc(NCc2cn(C(C)(C)C)nn2)c(C)c(OC)c1,-9%,1.73
C[C@@]1(C(=O)NCCS(=O)(=O)NCC2CCC2)CCCNC1=O,-3%,0.35
CCCCS(=O)(=O)N[C@@H](CC)c1ncccc1C,3%,-0.59
COCCN1C[C@@H](NC(=O)c2csc(-c3cccs3)n2)CC1=O,9%,-0.99
Clc1cccc(CNCCCNc2ccncc2)c1Cl,67%,-8.81
CCN(Cc1ccoc1)C(=O)C(=O)Nc1ncc(C)s1,-6%,0.72
CC(C)N(C)CC(=O)NC1CCCCCCC1,9%,-0.89
CCCOc1ccc(CNC(=O)CCn2ccn3nc(-c4ccc(C)c(C)c4)cc3c2=O)cc1,34%,-0.58
Cn1c(C[C@H]2CN(Cc3cccc(F)c3)CC[C@H]2CC(=O)O)nc2ccccc21,24%,-2.77
O[C@H]1C[C@H]2CC[C@@H](C1)N2c1nc(-c2cccnc2)nc2c1CNC2,-8%,1.23
Cc1cc(C(=O)N(C)Cc2nc3ccccc3c(=O)[nH]2)c(C)o1,6%,-1.21
Cc1cc(C)c(-c2ncc[nH]2)cc1Cn1cncn1,-4%,0.73
CCCNC(=O)n1ccc(C(=O)N2CCOCC2)n1,11%,-1.6
O=S1(=O)CCCN1Cc1ccccc1OC(F)F,-4%,0.39
CC(C)[C@H]1CCCN(Cc2cnc(N(C)C)s2)CC1,-8%,0.87
Cc1sc(NC(=O)CN2CCC[C@H]2C(=O)O)c(C)c1C,-21%,2.87
Cc1nc2n(c1CN1CCN(c3ccccn3)CC1)CCCC2,1%,-0.17

SMILES,% Inhibition,Z score
O=C(NCc1ccc(Cl)cc1)c1ccc(-n2nc3c(c2-c2cccc(C(F)(F)F)c2)CCC3)cc1,-3%,0.43
COc1ccccc1C[C@@H](C)Cc1nc(-c2ccccn2)no1,-7%,0.77
O=S(=O)(NC[C@H]1Cn2ccnc2CO1)c1ccc(Cl)cc1,-6%,0.91
CNC(=NC(C)C1CCCO1)N1CCC(C)CC1 (centres undefined),-1%,0.12
Fc1cnccc1N1CCO[C@H](c2ccc(Cl)cc2)C1,-8%,1.06
CC(C)(CC(=O)NS(C)(=O)=O)C1CC1,2%,-0.32
COc1cccc([C@H]2CCN(C(=O)CNC(=O)N(C)C)C2)c1OC,-2%,0.19
CS(=O)(=O)N1CCN(C(=O)NC[C@@H](c2ccco2)n2cccn2)C1=O,-5%,1.04
O=C(c1ccccc1)c1ccc2n1CC[C@H]2C(=O)Nc1ccc(C(F)(F)F)cc1,30%,-3.39
CS(=O)(=O)N1C[C@@H]2CC[C@H]1CN(C(=O)c1ccccc1)C2,6%,-1.11
COc1nccc(N2CCN(Cc3ccc(C)o3)[C@@H](CCO)C2)c1C#N,0%,0.05
CN(CC(=O)NC(=O)NC1CC1)Cc1cccc(Cl)c1Cl,-12%,1.6
CS(=O)(=O)Nc1ccc(-c2cnc3ccc(F)cc3c2)cn1,-13%,1.7
CCc1cnccc1C(=O)NCCc1nc(C2CC2)cs1,7%,-0.59
COCCNC(=O)CNc1ccccc1,5%,-0.47
Cc1nc(N(Cc2c(C)nn(C)c2C)C(C)C)c2nc(C)oc2n1,-12%,1.7
CCS(=O)(=O)N1CCC[C@H](C(=O)N(C)Cc2c[nH]nc2C)C1,7%,-0.93
COc1ccc([C@H]2OCC[C@@H]2Nc2ncnc3c(F)c(OC)ccc23)cn1,-14%,1.86
CC1(C)Cc2nc(N3CCC(O)CC3)ncc2[C@@H](NCc2cccnc2)C1,-3%,0.36
Cc1cccc2cc3c(nc12)N(C(=O)C(C)C)CC3,-6%,0.64
O=C(Nc1ccccc1)C1CCN(Cc2nc3ccccc3s2)CC1,-10%,1.34
CCn1c(CC2CCN(CC3=CC[C@H]4C[C@@H]3C4(C)C)CC2)nn(C)c1=O,-13%,1.19

SMILES,% Inhibition,Z score
O=S(=O)(c1cnn(C2CCCC2)c1)N1CC(O)(C(F)(F)F)C1,12%,-2.14
CC12CCC(C(=O)N(CN3CCOCC3)C1=O)C2(C)C (centres undefined),6%,-0.76
COc1ccc(-c2ccnc3nc([C@@H]4CCCO4)nn23)c(F)c1,-9%,1.4
Cc1cccc2c1CCN(S(=O)(=O)c1cnc(C3CC3)s1)[C@H]2C(=O)O,-2%,0.25
CCNS(=O)(=O)c1ccc2c(c1)C(C)(C)CN2CC(=O)N1CCCC1,0%,0.05
Cc1nc(-c2ccccc2)c(C(=O)N(C)CC(=O)N2CCOCC2)s1,-5%,0.66
C[C@@H]1COCCN(C(=O)Nc2ccc(Cl)c(OC(F)F)c2)C1,1%,-0.15
Cc1ccc(-c2c3c(=O)n(C)c(=O)n(C)c3c3n2-c2ccccc2O[C@@H]3c2cccc(F)c2F)cc1,-11%,1.48
COc1ccc(N[C@H]2CCCN(C(=O)CCCN3CCCC3=O)C2)cc1OC,9%,-1.19
Cc1nccn1-c1ccc(-c2ccc(S(C)(=O)=O)cc2)nn1,-1%,0.24
Cc1nn(C)c(C)c1NC(=O)c1cc2c(s1)CCCC2,-8%,1.02
COCCNCCOc1ccc(Cl)c(Cl)c1,-7%,0.93
COc1ccc(-n2cc([C@H](C)Nc3cc(C)nc4ccnn34)cn2)cc1,-10%,1.18
CC(C)CN(CC(N)=O)Cc1cn(C)nn1,-2%,0.17
COc1ccc(C(=O)CCC(=O)N2CC(OCc3ccccc3)C2)cc1,-9%,1.32
Cc1cccc(NC(=O)C2C(=O)NC34CCCCC3C2c2ccccc2O4)c1 (centres undefined),-6%,0.5
Cc1cccnc1CNc1cncc(Br)c1,17%,-2.07
CCOc1ccc(Nc2nnc(-c3nc(-c4ccccc4)oc3N)s2)cc1,-7%,0.96
CC(=O)N1CCc2cc(S(=O)(=O)Oc3ccccc3C#N)ccc21,-15%,1.29
O=C(NC[C@H]1CN(S(=O)(=O)c2cccc(F)c2)CC12CCOCC2)N1CCCC1,-7%,1.3
Cc1nc(C(=O)Nc2cnn([C@H]3CCOC3)c2)cs1,7%,-0.89
Cn1c(=O)c(-c2ccc(C(=O)NC3CCCCC3)cc2)nc2cccnc21,1%,-0.12

SMILES,% Inhibition,Z score
CC1CCN(C(=O)c2ccccc2N2CCC(NC(=O)c3cc(F)cc(F)c3)CC2)CC1,-15%,2.1
COc1ccc(Cl)cc1NC(=O)Cn1nc(C(=O)N2CCCC2)ccc1=O,-15%,1.99
COc1cc(-c2cccc(C(=O)NCC[C@H]3CCCN3C)c2)nc(OC)n1,-12%,1.26
O=C1COCC(=O)N1Cc1ccccc1,7%,-0.87
CC(C)[C@@H](c1ccccc1)N(C)CC#N,6%,-1.14
CC(=O)NCCNC(=O)c1cc(NCc2ccccc2C)cc(S(=O)(=O)Nc2ccccc2C)c1,-5%,0.92
Cc1nc2ccccn2c1CC(=O)NCCS(=O)(=O)CC(C)C,0%,-0.01
Cc1csc(CN(C[C@H]2CCCO2)C(=O)Cc2cc(C)on2)n1,-13%,2.53
CC[C@@H](C(=O)Nc1c(N2CCCC2)nn(C)c1C)n1cccn1,-1%,0.11
Fc1cccc2c3c([nH]c12)CNCCC3,1%,-0.13
Cc1cc(C(=O)Nc2sc3c(c2C#N)CCCCC3)no1,-23%,2.1
CN(CCc1cnn(C)c1)C(=O)c1cnc(-c2ccncc2)nc1,-9%,0.83
COc1ccc(OCC(F)(F)C(F)F)c(C(N)=O)c1,20%,-2.27
COc1cc(OC)nc(N2CCO[C@H](C(=O)N(C)C)C2)n1,4%,-0.91
Brc1ccc(-c2oc(-c3ccccc3)nc2-c2ccccc2)cc1,-16%,2.08
C=CCN(CCO)S(=O)(=O)c1ccc(Br)cc1C,-2%,0.29
CC1CC1C(=O)N(C)CCOCc1ccccc1 (centres undefined),4%,-0.53
Cc1n[nH]cc1CNC1CCCC(C)C1C (centres undefined),6%,-0.71
O=C(c1ccccc1F)N(Cc1ccc(F)cc1)Cc1nc2cc(Cl)ccc2o1,-13%,1.29
O=C(c1ccc(-c2noc(-c3ccccc3)n2)s1)N1CCN(C2CCCCC2)CC1,-5%,0.72
O=C1CCC2(c3ccccc3)CCCCC2N1 (centres undefined),-13%,2.57
